Source: ChEMBL document CHEMBL4888484, “Replenishing the malaria drug discovery pipeline: Screening and hit evaluation of the MMV Hit Generation Library 1 (HGL1) against asexual blood stage Plasmodium falciparum ,using a nano luciferase reporter read-out” (2022)
Where “and” joins values, the source holds several entries; their conditions need not be identical. Equal entries are not always repeated. The campaign covered roughly 150,000 compounds. About 540 (0.36%) showed an effect of 50% or more. Some of the results follow.

Test system: Plasmodium falciparum
Assay: Primary screen in NF54 nanoGlo assay, in single point, at 2uM, 72h; a lower Z score goes with more inhibition
Type: functional, Erythrocyte
Settings: timepoint 72 hour

| SMILES | % Inhibition [%] | Z score | % Inhibition (2 µM) | Z score (2 µM) |
| --- | --- | --- | --- | --- |
| COC(=O)CC1(NC(=O)c2ccnc(N(C)C)c2)CCC1 | 27 | -3.03 |  |  |
| O=C(N[C@@H]1CC[C@H]2CCOc3ccccc3C(=O)N3CCN(C4CCC(F)(F)CC4)C[C@H]3C(=O)NC[C@H]1O2)C1CCOCC1 | 29 | -3.41 |  |  |
| CC[C@@H](C(=O)NCCCNc1cccnc1)n1cccn1 | -5 | 1.06 |  |  |
| Cn1ncc(Cl)c1C(=O)N[C@H](c1cccs1)C1(CO)CCC1 | -5 | 0.67 |  |  |
| Cc1occc1C(=O)N1CCc2[nH]nc(C(=O)NCc3ccc(F)cc3)c2C1 | -5 | 0.95 |  |  |
| COc1ccccc1Cc1nnc2n1CCCC2 | 35 | -4.73 |  |  |
| Cc1cc(C)n(CC(=O)N(C)[C@H]2CCc3nnc(C)n3CC2)n1 | -11 | 1.65 |  |  |
| O=C(c1ccccc1)N1CC(COc2ccccc2)OC(c2ccccc2O)O1 (stereo not drawn) | -24 | 2.59 |  |  |
| CCC(=O)NC[C@@]12CCCC=C1N(C)C(=O)CC2 | 11 | -1.56 |  |  |
| Cc1nnc2n1[C@@H](C)CN(C(=O)CCn1cnc3ccccc3c1=O)C2 | -8 | 1.39 |  |  |
| C[C@H]1CCCCN1C(=O)Cn1cc(C(=O)c2ccco2)c2ccccc21 | -14 | 1.88 |  |  |
| C=C(C)C[C@H](C)C(=O)Nc1cnc2nccn2c1 | -8 | 1.34 |  |  |
| Cc1cnc(CCNC(=O)C2CC23CCOc2ccccc23)s1 (stereo not drawn) | -3 | 0.38 |  |  |
| Cn1ncc2c1NC(=O)C[C@@H]2c1ccccc1 | 34 | -3.88 |  |  |
| N#Cc1ncn(-c2nc(-c3cccc(Cl)c3)nc3c2CCCC3)n1 | -6 | 0.81 |  |  |
| CCc1ccc2nc(C)cc(C(=O)N3CCN(c4ccccc4)C(=O)C3)c2c1 | -8 | 1.49 |  |  |
| CCCC[C@H]1CN(c2cccc(C)c2)C(=O)CN1C(=O)c1cc(C2CC2)n[nH]1 | -13 | 2.32 |  |  |
| Cc1ccc2nc(N3CCC[C@H](C(=O)NCc4cccnc4)C3)[nH]c2c1 | -2 | 0.28 |  |  |
| Cc1c(C(=O)Nc2ccc(Cl)cc2F)sc2ncnc(N3CCCC3)c12 | -12 | 1.13 |  |  |
| C[C@H]1CS(=O)(=O)N(c2ccc(C(=O)N(C)c3ccccc3)c(Cl)c2)C1=O | -4 | 0.52 |  |  |
| O=C(c1cccc(N2CCCC2=O)c1)N1C[C@@H](CN2CCOCC2)[C@@H](CO)C1 | 1 | -0.12 |  |  |

| SMILES | % Inhibition [%] | Z score | % Inhibition (2 µM) | Z score (2 µM) |
| --- | --- | --- | --- | --- |
| CCOC(=O)c1ccc(NC(=O)c2nc(-c3cnccn3)no2)cc1 | -7 | 0.95 |  |  |
| CO[C@H]1CCCN(c2ccnc(C(C)C)n2)C1 | -4 | 0.8 |  |  |
| O=C(Nc1ccc(S(=O)(=O)N2CCCC2)cc1)c1sc2cccc(F)c2c1Cl | -1 | 0.16 |  |  |
| CCc1nc(-c2ccc(C#N)cc2)cc(-c2c(C)noc2C)n1 | -11 | 1.46 |  |  |
| Cc1ccc(-c2c(C)sc(NC(=O)c3ccncc3)c2C(N)=O)cc1C | -15 | 1.36 |  |  |
| CCOC(=O)[C@H]1CCCN(C(=O)c2c(Cc3ccccc3C)n(Cc3ccccn3)c(C)cc2=O)C1 | -8 | 1.53 |  |  |
| CN1CC2(CCN(c3cnc4ccccc4n3)CC2)OCC1=O | -5 | 0.88 |  |  |
| COc1cccc(CCc2ccccc2C(=O)N2CC[C@@H]3CNC[C@@H]32)c1 | 4 | -0.81 |  |  |
| CCC1Oc2ccc(NC(=O)C(CC)c3ccccc3)cc2CN(Cc2ccc3c(c2)OCO3)C1=O (stereo not drawn) | -5 | 1 |  |  |
| CCS(=O)(=O)N1CCC[C@H](C(=O)Nc2cc(C)on2)C1 | 13 | -1.84 |  |  |
| O=C(c1cc(Cl)sc1Cl)N1CCn2nccc2C1 | -8 | 1.49 |  |  |
| c1cc2c(cc1CCN1CCOC3(CCCC3)C1)OCCO2 | 3 | -0.41 |  |  |
| Nc1cccc(-n2ccc(-c3cnccn3)n2)n1 | -5 | 0.58 |  |  |
| CC(=O)Nc1cccc(-c2ncc(C)c(N)n2)c1 | 1 | -0.12 |  |  |
| COCCC(=O)Nc1ccccc1N(C)C1CCCC1 | -2 | 0.46 |  |  |
| COc1cccc(-c2ccc3c(c2)O[C@H]2CN(C(=O)CC(C)(C)C)C[C@H]2N(C)C3=O)c1 | 4 | -0.58 |  |  |
| Cc1ccc(C(=O)N2CCCC3CCCC32)c(=O)[nH]1 (stereo not drawn) | -10 | 1.06 |  |  |
| Oc1ccc(NC2Cc3ccccc3C2)cc1 | 2 | -0.36 |  |  |
| O=C(C1CCOCC1)N1CC[C@]23C(=O)N(Cc4cn(nn4)CCCOc4cccc(c4)[C@H]12)c1ccccc13 | 4 | -0.57 |  |  |
| CCC(=O)NCc1nc2c(n1C)CN(S(=O)(=O)c1c(C)noc1C)CC2 | -13 | 1.52 |  |  |
| CO[C@H]1C[C@@H](N(C)C(=O)NCC2CCC(C#N)CC2)C1 (stereo partly drawn) | 0 | -0.06 |  |  |

| SMILES | % Inhibition [%] | Z score | % Inhibition (2 µM) | Z score (2 µM) |
| --- | --- | --- | --- | --- |
| COC(=O)N1CCC[C@H]1C(=O)OCC(=O)N1CCCC1 | -12 | 1.47 |  |  |
| CCc1c[nH]c2ncnc(N3CCC(N(C)C)C3C)c12 (stereo not drawn) | -7 | 1.46 |  |  |
| C[C@H](NC(=O)Nc1cc(NS(C)(=O)=O)ccc1F)C1=CCCCC1 | 10 | -1.3 |  |  |
| Cc1cccc(N2CCN(S(=O)(=O)c3cc4n(c3)CCCNC4=O)CC2)c1 | -16 | 1.9 |  |  |
| CCn1nc(C)nc1-c1ccc(F)c2cccnc12 | -3 | 0.55 |  |  |
| CCc1c(C2CCN(C(=O)Nc3ccccc3C)CC2)noc1N | -16 | 2.58 |  |  |
| Cc1nscc1C(C)NCC1(C(O)C(C)C)CC1 (stereo not drawn) | -8 | 1.77 |  |  |
| COc1ccccc1C(=O)N1CCc2cc(S(=O)(=O)NC3CCCC3)ccc21 | -1 | 0.17 |  |  |
| COc1nc(N(C)Cc2nc(C)cs2)ncc1Br | -6 | 0.61 |  |  |
| COc1cccc(N(C)S(=O)(=O)c2ccc3c(c2)CCCC3)n1 | -6 | 0.88 |  |  |
| Cn1cncc1[C@H]1C[C@@H]1NC(=O)c1ccn(CC(F)(F)F)n1 | -7 | 0.87 |  |  |
| O=C(NCc1ccco1)c1cccc(NS(=O)(=O)c2cccc(F)c2)c1 | 4 | -0.82 |  |  |
| CC(C)C[C@H]1C(=O)NCCN1Cc1cn2cccnc2n1 | -21 | 1.87 |  |  |
| O=C(Nc1ccc2c(c1)OCO2)N1CCC(Oc2ccccn2)CC1 | -11 | 2 |  |  |
| CC(C)(C)c1ccc(C(=O)N2C[C@@H]3C[C@H]2C(=O)N3c2ccccc2F)cc1 | 15 | -1.99 |  |  |
| CN(Cc1ccncc1)Cc1ccc(CO)o1 | -4 | 0.44 |  |  |
| COCCS(=O)(=O)NCc1ccc(C(C)=O)c(C)n1 | -1 | 0.15 |  |  |
| Cc1nc(C)c(CCNC(=O)N2CCC(c3c[nH]cn3)CC2)s1 | 8 | -1.1 |  |  |
| CC(C)CC[C@@]1(C2CC2)NC(=O)N(CCS(C)(=O)=O)C1=O | -3 | 0.42 |  |  |
| Cc1ccc(C(C)C)c(Oc2ccc(Cl)cc2NC(=O)c2cc(Cl)cc(Br)c2O)c1 | 33 | -3.71 |  |  |
| CCCS(=O)(=O)N1CCN(C(CC)CC)CC1 | -8 | 0.99 |  |  |

| SMILES | % Inhibition [%] | Z score | % Inhibition (2 µM) | Z score (2 µM) |
| --- | --- | --- | --- | --- |
| Cc1cnn(CC(=O)N2CCN(c3oc(C4CC4)nc3C#N)CC2)c1 | -1 | 0.13 |  |  |
| O=C1C2C(c3ccccc3O)NC(Cc3c[nH]c4ccccc34)(C(=O)O)C2C(=O)N1c1ccc(Br)cc1 (stereo not drawn) | 0 | -0.07 |  |  |
| CCNC(=O)N1CCN(c2cc(C)nc(-c3cccnc3)n2)CC1 | -9 | 1.61 |  |  |
| O=C(c1ccccc1)c1conc1C(=O)c1ccccc1 | 2 | -0.28 |  |  |
| c1ccc2sc(CCCn3cc(-c4cncnc4)nn3)nc2c1 | -9 | 1.17 |  |  |
| COc1cc(F)c(NC(=O)N2CCN(C(=O)[C@@H]3CCCN3C)CC2)cc1OC | 1 | -0.16 |  |  |
| CC(C)CN1CCC(NC(=O)[C@H](C)c2cccnc2)CC1 | -18 | 2.44 |  |  |
| CCN(CC)CCNC(=O)c1cnn(-c2ncc3c(n2)-c2cc(OC)ccc2CC3)c1C | -2 | 0.39 |  |  |
| Cc1ccc(C)c(CN2CC[C@H](CNC(=O)c3occc3C)C2)c1 | -19 | 3.61 |  |  |
| CN(CC1CCCCO1)C(=O)C1CC(Cc2ccc(F)cc2)=NO1 (stereo not drawn) | -3 | 0.58 |  |  |
| COCC[C@]1(NC(=O)c2ccc(F)cc2)CCN(Cc2ccc(Cl)cc2)C1 | -6 | 0.72 |  |  |
| CNc1ncc(-c2ccc(CO)cc2)c(-c2ccc(C)cc2)n1 | -15 | 2.86 |  |  |
| OCC(CC1CC1)NC1CCC(c2ccccc2)C1 (stereo not drawn) | -2 | 0.3 |  |  |
| O=S1(=O)c2ccccc2C(c2ccccc2)=NN1Cc1ccccc1Cl | -7 | 1.28 |  |  |
| Cc1ccc(NC(=O)[C@H]2CC2(F)F)c(C)n1 | -13 | 2.49 |  |  |
| Cc1[nH]ccc1C(=O)N1CCC2(CCC(=O)N(CCc3cccnc3)C2)CC1 | -13 | 2.48 |  |  |
| O=C(CCc1ccccc1)N1CCC2(CC1)CN(C1CCC1)C[C@@H]2CO | -10 | 1.12 |  |  |
| Cc1n[nH]c(CNc2ncc(Cl)cn2)c1C | -21 | 3.23 |  |  |
| Cc1cc(C)c(C(=O)N2CC[C@]3(CCOC3)C2)[nH]1 | -1 | 0.16 |  |  |
| O=C(COc1ccccc1)Nc1cnc(-c2cccnc2)nc1 | -25 | 2.19 |  |  |
| COc1ccc(CN2C(=O)N[C@@H](CC(=O)N3CCc4ccccc4C3)C2=O)cc1 |  |  | -19% and -8% | 2.49 and 1.19 |
